Measurements as given in patent US7632870B2, “Composition based on substituted 1,3-diphenylprop-2-en-1-one derivatives, preparation and uses thereof” (Genfit, priority 2002, dated 2009).
At least one structure is not confirmed: it was looked up by name or label, or the drawing left a doubt.

Columns and labels:
PPARα = biological target: T1, PPARα (Homo sapiens, UniProt Q07869); assay: PPARα/Gal4 transactivation system in RK13 cells (luciferase reporter); format: cell-based, rabbit; conditions: 24 hours
T1 construct: expressed in transfected cells; host or cells: RK13 cells
T1 sequence (Q07869 239-466 limits assumed): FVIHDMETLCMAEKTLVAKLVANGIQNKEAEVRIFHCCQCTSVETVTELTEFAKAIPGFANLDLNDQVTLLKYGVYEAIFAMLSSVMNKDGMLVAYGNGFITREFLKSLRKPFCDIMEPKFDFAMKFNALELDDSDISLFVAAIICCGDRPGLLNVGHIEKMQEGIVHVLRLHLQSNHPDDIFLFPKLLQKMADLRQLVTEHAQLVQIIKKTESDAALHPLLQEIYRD
Procedure: RK13 cells were incubated with the different compounds at concentrations of 10, 30 and 100 μM or 1, 10 and 100 μM for 24 hours. The results are expressed as the induction factor (luminescent signal relative to untreated cells) after the different treatments.
PPAR activation was tested in vitro in RK13 fibroblast cell lines by measuring the transcriptional activity of chimeras composed of the DNA binding domain of the yeast gal4 transcription factor and the ligand binding domain of the different PPARs. These latter results were then confirmed in cell lines according to the following protocols:
RK13 cells were from ECACC (Porton Down, UK) and were grown in DMEM medium supplemented with 10% (V/N) fetal calf serum, 100 U/ml penicillin (Gibco, Paisley, UK) and 2 mM L-glutamine (Gibco, Paisley, UK). The culture medium was changed every two days. Cells were kept at 37° C. in a humidified 95% air/5% CO2 atmosphere.
The plasmids pG5TkpGL3, pRL-CMV, pGal4-hPPRAα, pGal4-hPPRAγ and pGal4-φ have been described by Raspe, Madsen et al. (1999). The pGal4-mPPRAα and pGal4-hPPRAγ constructs were obtained by cloning into the pGal4-φ vector of PCR-amplified DNA fragments corresponding to the DEF domains of the human PPARα and PPRAγ nuclear receptors.
[…] At the end of the experiment, the cells were lysed (Gibco, Paisley, UK) and luciferase activity was determined with a Dual-Luciferase™ Reporter Assay System kit (Promega, Madison, Wis., USA) according to the supplier's instructions as previously described (Raspe, Madsen et al. 1999).

LDL = assay: Protection against LDL oxidation by copper (conjugated diene formation); format: biochemical; conditions: compound at 10^-4M; for rate of conjugated diene formation: FIG. 1-5, copper alone 1.6
Procedure: LDL oxidation is an important alteration and plays a predominant role in the establishment and development of atherosclerosis (Jurgens, Hoff et al. 1987). […] Unless otherwise indicated, the reagents were from Sigma (St Quentin, France).
LDL were prepared according to the method described by Lebeau et al. (Lebeau, Furman et al. 2000).
The solutions of test compounds were prepared at 10^−2 M concentration in bicarbonate buffer (pH 9) and diluted in PBS to obtain final concentrations ranging from 0.1 to 100 μM for a total ethanol concentration of 1% (V/V).
Prior to oxidation, EDTA was removed from the LDL preparation by dialysis. Oxidation then took place at 30° C. by addition of 100 μl of 16.6 μM CuSO4 solution to 160 μL of LDL (125 μg protein/ml) and 20 μl of a test compound solution. The formation of dienes, the species under observation, was followed by measuring optical density at 234 nm in the samples treated with the compounds but in the presence or absence of copper. Optical density at 234 nm was measured every 10 minutes for 8 hours in a thermostated spectrophotometer (Tecan Ultra 380). The analyses were performed in triplicate. The compounds were considered to have antioxidant activity when they induced a longer lag phase and reduced the rate of oxidation and the amount of dienes formed in comparison with the control sample. […] FIGS. 1, 2 and 3 give an example of the results illustrating the antioxidant properties of compounds 2 and 5.

[1] = FIG. 1-1, copper alone 111 minutes
[2] = FIG. 1-4, copper alone 178 minutes

Row | Induction factor (luminescent signal relative to untreated cells) (PPARα; 1 μM) | Induction factor (luminescent signal relative to untreated cells) (PPARα; 10 μM) | Induction factor (luminescent signal relative to untreated cells) (PPARα; 100 μM) | SMILES | other results
1 | 2.06 | 11 | 0.00 | CSc1ccc(/C=C/C(=O)c2ccc(SC(C)(C)C(=O)O)cc2)cc1 [Compound 24, 1-[4-carboxydimethylmethylthiophenyl]-3-[4-methylthiophenyl]prop-2-en-1-one] | Induction factor (luminescent signal relative to untreated cells) (PPARα; 10 μM, listed as Cp24): 11.62
2 | 1.55 | 3.6 | 0.12 | CC(C)(Oc1ccc(C(=O)/C=C/c2ccc(Cl)cc2)cc1)C(=O)O [Compound 23, 1-[4-carboxydimethylmethyloxyphenyl]-3-[4-chlorophenyl]prop-2-en-1-one] | Induction factor (luminescent signal relative to untreated cells) (PPARα; 10 μM, listed as Cp23): 3.67
3 | 1.75 | 7.8 | 1.08 | CSc1ccc(/C=C/C(=O)c2ccc(OC(C)(C)C(=O)O)cc2)cc1 [Compound 26, 1-[14-carboxydimethylmethyloxyphenyl]-3-[4-methylthiophenyl]prop-2-en-1-one] | Induction factor (luminescent signal relative to untreated cells) (PPARα; 10 μM, listed as Cp26): 7.85
4 | 2.40 | 50 | 2.73 | CSc1ccc(C(=O)/C=C/c2ccc(OC(C)(C)C(=O)O)cc2)cc1 [Compound 22, 1-[4-methylthiophenyl]-3-[4-carboxydimethylmethyloxyphenyl]prop-2-en-1-one] | Induction factor (luminescent signal relative to untreated cells) (PPARα; 10 μM, listed as Cp22): 49.49; lag phase of conjugated diene formation (LDL; [2]): 241 min; rate of conjugated diene formation (LDL): 1.3 nmol/min/mg of LDL; maximum amount of conjugated dienes formed (LDL; FIG. 1-6, copper alone 353): 345 nmol per mg of LDL
5 | 1.20 | 15.6 | 0.07 | CC(C)(Sc1ccc(/C=C/C(=O)c2ccccc2O)cc1)C(=O)O [Compound 19, 1-[2-hydroxyphenyl]-3-[4-carboxydimethylmethylthiophenyl]prop-2-en-1-one] | Induction factor (luminescent signal relative to untreated cells) (PPARα; 10 μM, listed as Cp19): 15.62; lag phase of conjugated diene formation (LDL; [2]): 182 min; maximum amount of conjugated dienes formed (LDL; FIG. 1-6, copper alone 353): 345 nmol per mg of LDL
6 | 21.50 | 53 | 1.22 | CC(C)(Sc1ccc(/C=C/C(=O)c2ccc(Cl)cc2O)cc1)C(=O)O [Compound 20, 1-[4-chloro-2-hydroxyphenyl]-3-[4-carboxydimethylmethylthiophenyl]prop-2-en-1-one] | Induction factor (luminescent signal relative to untreated cells) (PPARα; 10 μM, listed as Cp20): 53.45
7 | 0.78 | 1.10 | 22.80 | Cc1cc(/C=C/C(=O)c2ccc(OC(C)(C)C(=O)O)cc2)cc(C)c1O [Compound 21, 1-[4-carboxydimethylmethyloxyphenyl]-3-[3,5-dimethyl-4-hydroxyphenyl]prop-2-en-1-one] | lag phase of conjugated diene formation (LDL; [2]): more than 480 minutes; rate of conjugated diene formation (LDL): not measurable because too low; maximum amount of conjugated dienes formed (LDL; FIG. 1-6, copper alone 353): inhibited conjugated diene formation

Continued, compound first:

Row | SMILES | Induction factor (luminescent signal relative to untreated cells) (PPARα; 1 μM) | Induction factor (luminescent signal relative to untreated cells) (PPARα; 10 μM) | Induction factor (luminescent signal relative to untreated cells) (PPARα; 100 μM) | other results
8 | CC(C)(Oc1ccc(/C=C/C(=O)c2ccc(O)cc2)cc1)C(=O)O [Compound 14, 1-[2-hydroxyphenyl]-3-[4-carboxydimethylmethyloxyphenyl]prop-2-en-1-one] | 1.25 | 1.36 | 1.38 | lag phase of conjugated diene formation (LDL; [1]): 134 min
9 | CC(C)(Oc1ccc(/C=C/C(=O)c2ccc(Cl)cc2O)cc1)C(=O)O [Compound 3, 1-[2-hydroxy-4-chlorophenyl]-3-[4-carboxydimethylmethyloxyphenyl]prop-2-en-1-one] |  | 30.12 | 25.84 | Induction factor (luminescent signal relative to untreated cells) (PPARα; 30 μM): 27; Induction factor (luminescent signal relative to untreated cells) (PPARα; 30 μM, listed as Cp3): 27.27; lag phase of conjugated diene formation (LDL; [1]): 132 min; maximum amount of conjugated dienes formed (LDL; FIG. 1-3, copper alone 348): 303 nmol per mg of LDL
10 | CC(C)(Oc1cccc(/C=C/C(=O)c2ccccc2O)c1)C(=O)O [Compound 9, 1-[2-hydroxyphenyl]-3-[3-carboxydimethylmethyloxyphenyl]prop-2-en-1-one] |  | 2.11 | 28 | Induction factor (luminescent signal relative to untreated cells) (PPARα; 30 μM): 5.00; Induction factor (luminescent signal relative to untreated cells) (PPARα; 100 μM, listed as Cp9): 28.19
11 | CC(C)(Oc1ccc(/C=C/C(=O)c2ccc(O)cc2O)cc1)C(=O)O [Compound 13, 1-[2,4-dihydroxyphenyl]-3-[4-carboxydimethylmethyloxyphenyl]prop-2-en-1-one] | 1.20 | 1.10 | 1.5 | 
12 | CSc1ccc(/C=C/C(=O)c2ccc(OC(C)(C)C(=O)O)cc2O)cc1 [Compound 12, 1-[2-hydroxy-4-carboxydimethylmethyloxyphenyl]-3-[4-methylthiophenyl]prop-2-en-1-one] | 1.12 | 1 | 22 | Induction factor (luminescent signal relative to untreated cells) (PPARα; 10 μM, listed as Cp12): 8.45; Induction factor (luminescent signal relative to untreated cells) (PPARα; 30 μM): 8; Induction factor (luminescent signal relative to untreated cells) (PPARα; 100 μM, listed as Cp12): 22.54; lag phase of conjugated diene formation (LDL; [1]): 145 min
